# Laboratory results from the supplement of paper PMC8728848.
# The list shows a part of the results.
# B1: EPL1 (Trichoderma atroviride), A0PCX2 (protein)
# chain: MQLSNLFKLALFTAAVSADTVSYDTGYDDASRSLTVVSCSDGTNGLITRYHWQTQGQIPRFPYIGGAQAVAGWNSPNCGTCWKLTYSGKTIYVLAIDHTAAGFNIGLDAMNALTNGNAVALGRVSATASQVAVSNCGL
# Assays:
# Test in all cases: glycan array binding signal (z-score within array); higher = stronger binding
# Conditions in all cases: glycan notation: IUPAC condensed, linker removed
# [1] = molecular target: Neu5Ac(a2-3)Gal(b1-3)GlcNAc6S
# How it was run: (§1)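 Arrays were curated from the Consortium for Functional Glycomics database, 3228 in total, and kept only where the protein sequence was available. Binding is expressed as a within-array Z-score. This score was averaged across arrays of the same protein sequence at different concentrations or buffers and across linkers, and negative values can be read as non-binding.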
# [2] = molecular target: Neu5Ac(a2-3)Gal(b1-3)[Fuc(a1-4)]GlcNAc
# How it was run: as §1
# [3] = molecular target: Neu5Ac(a2-3)Gal(b1-3)[Fuc(a1-4)]GlcNAc(b1-3)Gal(b1-3)[Fuc(a1-4)]GlcNAc
# How it was run: as §1
# [4] = molecular target: Neu5Ac(a2-3)Gal(b1-3)[Fuc(a1-4)]GlcNAc(b1-3)Gal(b1-4)[Fuc(a1-3)]GlcNAc
# How it was run: as §1
# [5] = molecular target: Neu5Ac(a2-3)Gal(b1-3)[GlcNAc(b1-6)]GalNAc
# How it was run: as §1
# [6] = molecular target: Neu5Ac(a2-3)Gal(b1-3)[Neu5Ac(a2-6)]GalNAc
# How it was run: as §1
# [7] = molecular target: Neu5Ac(a2-3)Gal(b1-3)[Neu5Ac(a2-6)]GlcNAc(b1-3)[Fuc(a1-3)[Gal(b1-4)]GlcNAc(b1-6)]Gal(b1-4)Glc
# How it was run: as §1
# [8] = molecular target: Neu5Ac(a2-3)Gal(b1-3)]Neu5Ac(a2-3)Gal(b1-4)]GlcNAc
# How it was run: as §1
# Neu5Ac(a2-3)Gal(b1-4)Glc = molecular target: Neu5Ac(a2-3)Gal(b1-4)Glc
# How it was run: as §1
# [9] = molecular target: Neu5Ac(a2-3)Gal(b1-4)GlcNAc
# How it was run: as §1
# [10] = molecular target: Neu5Ac(a2-3)Gal(b1-4)GlcNAc(b1-2)Man
# How it was run: as §1
# [11] = molecular target: Neu5Ac(a2-3)Gal(b1-4)GlcNAc(b1-2)Man(a1-3)[GlcNAc(b1-4)][Neu5Ac(a2-3)Gal(b1-4)GlcNAc(b1-2)Man(a1-6)]Man(b1-4)GlcNAc(b1-4)GlcNAc
# How it was run: as §1
# [12] = molecular target: Neu5Ac(a2-3)Gal(b1-4)GlcNAc(b1-2)Man(a1-3)[Neu5Ac(a2-3)Gal(b1-4)GlcNAc(b1-2)Man(a1-6)]Man(b1-4)GlcNAc(b1-4)GlcNAc
# How it was run: as §1
# [13] = molecular target: Neu5Ac(a2-3)Gal(b1-4)GlcNAc(b1-2)Man(a1-3)[Neu5Ac(a2-3)Gal(b1-4)GlcNAc(b1-2)Man(a1-6)]Man(b1-4)GlcNAc(b1-4)[Fuc(a1-6)]GlcNAc
# How it was run: as §1
# [14] = molecular target: Neu5Ac(a2-3)Gal(b1-4)GlcNAc(b1-2)Man(a1-3)[Neu5Ac(a2-6)Gal(b1-4)GlcNAc(b1-2)Man(a1-6)]Man(b1-4)GlcNAc(b1-4)GlcNAc
# How it was run: as §1
# [15] = molecular target: Neu5Ac(a2-3)Gal(b1-4)GlcNAc(b1-2)[Neu5Ac(a2-3)Gal(b1-4)GlcNAc(b1-4)]Man(a1-3)[GlcNAc(b1-4)][Neu5Ac(a2-3)Gal(b1-4)GlcNAc(b1-2)[Neu5Ac(a2-3)Gal(b1-4)GlcNAc(b1-6)]Man(a1-6)]Man(b1-4)GlcNAc(b1-4)GlcNAc
# How it was run: as §1
# [16] = molecular target: Neu5Ac(a2-3)Gal(b1-4)GlcNAc(b1-2)[Neu5Ac(a2-3)Gal(b1-4)GlcNAc(b1-4)]Man(a1-3)[GlcNAc(b1-4)][Neu5Ac(a2-3)Gal(b1-4)GlcNAc(b1-4)Man(a1-6)]Man(b1-4)GlcNAc(b1-4)GlcNAc
# How it was run: as §1
# [17] = molecular target: Neu5Ac(a2-3)Gal(b1-4)GlcNAc(b1-2)[Neu5Ac(a2-3)Gal(b1-4)GlcNAc(b1-6)]Man(a1-6)[Neu5Ac(a2-3)Gal(b1-4)GlcNAc(b1-2)Man(a1-3)]Man(b1-4)GlcNAc(b1-4)GlcNAc
# How it was run: as §1
# [18] = molecular target: Neu5Ac(a2-3)Gal(b1-4)GlcNAc(b1-2)[Neu5Ac(a2-3)Gal(b1-4)GlcNAc(b1-6)]Man(a1-6)[Neu5Ac(a2-3)Gal(b1-4)GlcNAc(b1-2)Man(a1-3)][GlcNAc(b1-4)]Man(b1-4)GlcNAc(b1-4)GlcNAc
# How it was run: as §1
# [19] = molecular target: Neu5Ac(a2-3)Gal(b1-4)GlcNAc(b1-3)Gal
# How it was run: as §1
# [20] = molecular target: Neu5Ac(a2-3)Gal(b1-4)GlcNAc(b1-3)Gal(b1-3)GlcNAc
# How it was run: as §1
# [21] = molecular target: Neu5Ac(a2-3)Gal(b1-4)GlcNAc(b1-3)Gal(b1-4)GlcNAc
# How it was run: as §1
# [22] = molecular target: Neu5Ac(a2-3)Gal(b1-4)GlcNAc(b1-3)Gal(b1-4)GlcNAc(b1-2)Man(a1-3)[Neu5Ac(a2-3)Gal(b1-4)GlcNAc(b1-3)Gal(b1-4)GlcNAc(b1-2)Man(a1-6)]Man(b1-4)GlcNAc(b1-4)GlcNAc
# How it was run: as §1
# [23] = molecular target: Neu5Ac(a2-3)Gal(b1-4)GlcNAc(b1-3)Gal(b1-4)GlcNAc(b1-3)Gal(b1-4)GlcNAc
# How it was run: as §1
# [24] = molecular target: Neu5Ac(a2-3)Gal(b1-4)GlcNAc(b1-3)Gal(b1-4)GlcNAc(b1-3)Gal(b1-4)GlcNAc(b1-2)Man(a1-3)[Neu5Ac(a2-3)Gal(b1-4)GlcNAc(b1-3)Gal(b1-4)GlcNAc(b1-3)Gal(b1-4)GlcNAc(b1-2)Man(a1-6)]GalNAc
# How it was run: as §1
# [25] = molecular target: Neu5Ac(a2-3)Gal(b1-4)GlcNAc(b1-3)Gal(b1-4)GlcNAc(b1-3)GalNAc
# How it was run: as §1
# [26] = molecular target: Neu5Ac(a2-3)Gal(b1-4)GlcNAc(b1-3)Gal(b1-4)GlcNAc(b1-3)[Neu5Ac(a2-3)Gal(b1-4)GlcNAc(b1-3)Gal(b1-4)GlcNAc(b1-6)]GalNAc
# How it was run: as §1
# [27] = molecular target: Neu5Ac(a2-3)Gal(b1-4)GlcNAc(b1-3)Gal(b1-4)GlcNAc(b1-6)[Gal(b1-3)]GalNAc
# How it was run: as §1
# [28] = molecular target: Neu5Ac(a2-3)Gal(b1-4)GlcNAc(b1-3)Gal(b1-4)[Fuc(a1-3)]GlcNAc
# How it was run: as §1
# [29] = molecular target: Neu5Ac(a2-3)Gal(b1-4)GlcNAc(b1-3)GalNAc
# How it was run: as §1
binder,measurement,setting,value
B1,glycan array binding signal (z-score),[1],-0.116
same,glycan array binding signal (z-score),[2],-0.091
same,glycan array binding signal (z-score),[3],-0.35
same,glycan array binding signal (z-score),[4],-0.501
same,glycan array binding signal (z-score),[5],-0.167
same,glycan array binding signal (z-score),[6],0.447
same,glycan array binding signal (z-score),[7],-0.501
same,glycan array binding signal (z-score),[8],-0.367
same,glycan array binding signal (z-score),Neu5Ac(a2-3)Gal(b1-4)Glc,-0.061
same,glycan array binding signal (z-score),[9],-0.399
same,glycan array binding signal (z-score),[10],0.402
same,glycan array binding signal (z-score),[11],-0.469
same,glycan array binding signal (z-score),[12],-0.374
same,glycan array binding signal (z-score),[13],0.589
same,glycan array binding signal (z-score),[14],-0.297
same,glycan array binding signal (z-score),[15],0.049
same,glycan array binding signal (z-score),[16],0.648
same,glycan array binding signal (z-score),[17],0.484
same,glycan array binding signal (z-score),[18],-0.266
same,glycan array binding signal (z-score),[19],-0.362
same,glycan array binding signal (z-score),[20],-0.151
same,glycan array binding signal (z-score),[21],-0.4
same,glycan array binding signal (z-score),[22],0.387
same,glycan array binding signal (z-score),[23],0.148
same,glycan array binding signal (z-score),[24],0.016
same,glycan array binding signal (z-score),[25],-0.438
same,glycan array binding signal (z-score),[26],0.045
same,glycan array binding signal (z-score),[27],-0.177
same,glycan array binding signal (z-score),[28],-0.32
same,glycan array binding signal (z-score),[29],-0.241
